# Measurements: PubChem BioAssay AID1671188 (National Center for Advancing Translational Sciences (NCATS), 2021)
# Hit rate of the full screen: of about 100,000 compounds, about 250 (0.25%) were called active. The shares of active, inactive and inconclusive entries below differ from those in the screen. Calls come from the whole dose curve; as a rule, active = well fitted inhibition curve with a large enough effect; inconclusive = small, poorly fitted or top-dose-only effect; inactive = flat fitted curve, though single readings scatter. Potencies of inconclusive entries are left out as doubtful fits.
# Target: Alanine aminotransferase 2 (Homo sapiens) (UniProt Q8TD30)
# Chain of UniProt Q8TD30 (Q8TD30 whole entry, looked up): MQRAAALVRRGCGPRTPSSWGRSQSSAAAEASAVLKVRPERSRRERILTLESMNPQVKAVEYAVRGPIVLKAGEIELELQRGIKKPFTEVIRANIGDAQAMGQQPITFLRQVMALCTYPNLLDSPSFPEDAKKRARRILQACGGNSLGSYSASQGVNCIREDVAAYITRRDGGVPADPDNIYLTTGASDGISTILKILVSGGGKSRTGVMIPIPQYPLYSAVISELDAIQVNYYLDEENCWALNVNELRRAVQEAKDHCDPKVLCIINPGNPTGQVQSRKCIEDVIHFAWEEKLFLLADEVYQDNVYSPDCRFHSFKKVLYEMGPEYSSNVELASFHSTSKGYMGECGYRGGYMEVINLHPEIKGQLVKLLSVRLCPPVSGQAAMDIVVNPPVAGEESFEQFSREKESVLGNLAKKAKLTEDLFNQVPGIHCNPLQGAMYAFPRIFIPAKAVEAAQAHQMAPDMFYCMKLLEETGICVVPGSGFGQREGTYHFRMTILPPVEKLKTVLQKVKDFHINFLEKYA
# Experiment: Primary qHTS assay for inhibitors of Glutamate pyruvate transaminase 2 (GPT2); note: nearly all actives have a fitted effect of over 60% in size
# Conditions: Recombinant GPT2, coupled pyruvate oxidase/HRP Amplex Red fluorescence; activity change, negative = inhibition: at 57.7 µM (top of the series) unless noted; series mostly up to 57.7 µM
# Outline: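 Inhibition is scored from Amplex Red fluorescence generated when pyruvate oxidase and HRP act on pyruvate released by GPT2. Reactions contain 10ng/uL enzyme, 250uM a-KG and 2mM L-alanine and run 30 min at room temperature.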
# % is set by controls: 0 for no effect and ±100 for the full control effect; potency is the fitted concentration of half-maximal effect; tags give direction and shape of the fitted curve.
SMILES,Potency,outcome,"activity change, negative = inhibition"
O=C(CN1C(=O)NC(c2ccc(Cl)cc2)C2=C1COC2=O)Nc1ccc(F)c(Cl)c1 (stereo not drawn),"inconclusive [inhibitor, full curve, poor fit]",–,–
COc1cccc(-c2cc3c(=O)n(CCNC(=O)Cc4ccc(Cl)cc4)ccn3n2)c1,–,inactive,–
O=C(c1ccccc1F)N1CC[C@H]2COC(=O)N2c2cc(F)ccc2C1,–,–,inactive: -9.33% [at 88.5 µM]
CCCC(=O)N1CCC(O)(c2ccccc2)[C@H](N2CCCC2)C1 (stereo partly drawn),"inconclusive [inhibitor, full curve, poor fit]",–,–
N#C/C(=C\c1ccc(O)c(O)c1)C(=O)c1ccc(O)c(O)c1,"inconclusive [inhibitor, full curve, poor fit]",–,–
NC(=O)C(O[C@@H]1O[C@H](CO[C@@H]2O[C@H](CO)[C@@H](O)[C@H](O)[C@H]2O)[C@@H](O)[C@H](O)[C@H]1O)c1ccccc1 (stereo partly drawn),–,inactive [at 27.3 µM],–
CCCCN1C(=O)[C@@H]2C[C@@H](O)CN2C2(CN(Cc3ccc(F)c(F)c3)C2)C1=O,"inconclusive [inhibitor, single point]",–,–
CCC(Nc1ncnc2nc[nH]c12)c1nc2cccc(F)c2c(=O)n1-c1ccccc1 (stereo not drawn),"inconclusive [inhibitor, single point]",–,–
CC(=O)Nc1ccc(C2(C(=O)NCc3ccc(Cl)cc3)CCC2)cc1,–,inactive,–
COc1ccc(-c2nc(C3CC3)nc3c2CN([S+](=O)([O-])c2onc(C)c2C)CC3)cc1,–,–,inactive: -1.06%
O=C1CCN(C(=O)C2CCN(S(=O)(=O)Cc3cccc(F)c3)CC2)CCCCCCN1,"inconclusive [inhibitor, single point]",–,–
NCC(=O)O,"inconclusive [inhibitor, single point]",–,–
C[C@@H](N)C(=O)N1CCC2(CC1)Nc1ccccc1NC2=O,"inconclusive [inhibitor, single point]",–,–
CCN(CC)C(=O)C(NC(=O)c1cccs1)C1CCN(C(=O)c2cccc(F)c2)CC1 (stereo not drawn),"inconclusive [inhibitor, single point]",–,–
C=CCNc1nc(C)nc2c1CCN(C(=O)CNS(C)(=O)=O)CC2,"inconclusive [inhibitor, single point]",–,–
CCNc1ncc(CN2CCN(c3cccc(C(F)(F)F)c3)CC2)cn1,"inconclusive [inhibitor, single point]",–,–
CCOC(=O)C1CCN(C(=O)c2cc(Cn3nc(C)cc3C)[nH]n2)CC1,"inconclusive [inhibitor, partial curve, poor fit]",–,–
CC1=C[C@@H](CN2CCN(c3ccccn3)CC2)[C@H](C(C)C)C[C@H]1Cc1nnc(-c2ccc(C)cc2)o1,"inconclusive [inhibitor, single point]",–,–
